# Data taken from PubChem BioAssay (Tox21).
# This list was built around the results that the source calls inconclusive (neither active nor inactive); the mix of calls is not that of the screen. Potencies beside an inconclusive call are fits to weak or partial responses and may not hold up. Activity calls are given as the source filed them. The call rests on the fitted dose curve; in most records, active means well fitted inhibition curve with a large enough effect in the signal ratio in the repeat runs (not every such curve was filed as active); inconclusive means weak or mixed curves, or effect the other way; inactive means no such curve, though single readings can be large or run the other way; the % refers to the signal ratio.
# Target: Bile acid receptor (Homo sapiens) (UniProt Q96RI1)
# Sequence of UniProt Q96RI1 (Q96RI1 whole entry, looked up): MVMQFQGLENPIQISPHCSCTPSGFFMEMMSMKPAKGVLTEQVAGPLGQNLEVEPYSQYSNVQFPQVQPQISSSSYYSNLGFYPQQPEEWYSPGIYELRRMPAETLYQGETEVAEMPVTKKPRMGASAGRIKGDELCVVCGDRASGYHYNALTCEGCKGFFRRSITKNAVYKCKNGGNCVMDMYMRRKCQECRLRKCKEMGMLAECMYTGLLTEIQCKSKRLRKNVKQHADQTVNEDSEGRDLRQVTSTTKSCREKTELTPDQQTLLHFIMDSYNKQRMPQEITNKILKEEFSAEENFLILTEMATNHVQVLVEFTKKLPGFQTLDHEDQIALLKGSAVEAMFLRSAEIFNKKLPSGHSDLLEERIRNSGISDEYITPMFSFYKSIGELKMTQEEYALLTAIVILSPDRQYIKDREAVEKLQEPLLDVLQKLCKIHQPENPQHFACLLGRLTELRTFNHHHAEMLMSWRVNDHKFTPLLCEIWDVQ
# Experiment: qHTS assay to identify small molecule antagonists of the farnesoid-X-receptor (FXR) signaling pathway (AID 743217)
# Conditions: HEK293T FXR-UAS-bla, beta-lactamase ratio, CDCA-stimulated, 16 h; activity change, negative = inhibition: at 62.6 µM (top of the series) unless noted
# Description: U.S. Tox21 Program National Center for Advancing Translational Sciences [NCATS] NIH Chemical Genomics Center [NCGC] U.S. Environmental Protection Agency [EPA] National Institutes of Environmental Health Sciences [NIEHS] National Toxicology Program [NTP] U.S. Food and Drug Administration [FDA] Tox21 Assay Overview: The farnesoid-X-receptor (FXR), a nuclear hormone receptor, is highly expressed in liver, intestine, kidney and adrenal cortex. Natural ligands of FXR are the bile acids (Cholic acid, Chenodeoxy cholic acid etc). FXR is an important regulator of diverse metabolic pathways, including the bile acid homeostasis, lipid and glucose metabolisms. FXR regulates the expression of target genes by binding either as a monomer or as a heterodimer with the retinoid X receptor (RXR). Numerous studies have reported that FXR exerts protective function during cholestasis, diabetes, liver regeneration, and cancer. To identify compounds that inhibit FXR signaling, GeneBLAzer FXR-UAS-bla HEK 293T cell line (Invitrogen, Carlsbad, CA) containing a beta-lactamase reporter gene under the control of a UAS response element was used to screen the Tox21 10K compound library.
# Tox21 Assay Protocol Summary: FXR-bla cells were dispensed at 5000 cells/5uL/well in 1536-well black wall/clear bottom plates using a Multidrop Combi (Thermo Fisher Scientific, Waltham, MA) dispenser. After the assay plates were incubated at 37C and 5% CO2 for 5 h, 23 nL of compounds dissolved in DMSO, positive controls or DMSO only was transferred to the assay plate by a Pintool station (Kalypsys, San Diego, CA), followed by addition of 1 uL Chenodeoxycholic acid (50 uM, final concentration in the wells). The assay plates were incubated at 37C for 16 h. After 1 uL of LiveBLAzerTM B/G FRET substrate was added using a Bioraptr Flying Reagent Dispenser (FRD) workstation (Beckman Coulter, Indianapolis, IN), the plates were incubated at room temperature for 2 h, and fluorescence intensity was measured by an Envision plate reader (PerkinElmer, Shelton, CT).
# On the % scale 0 is the no-effect control and ±100 the full control effect; potency means the concentration at half of the fitted maximal effect; tags describe the fitted curve by direction and shape or compound fluorescence and quenching.
SMILES,"activity change, negative = inhibition",Potency
O=c1c2ccccc2c(=O)c2c1cc(Cl)c1[nH]c3c([nH]c12)c(Cl)cc1c(=O)c2ccccc2c(=O)c13,inactive: 0.525%,
CCOC(=O)N(C)C(=O)CSP(=S)(OCC)OCC,inconclusive: -16.3%,
CC(=O)C1CCOC1=O (stereo not given),,inactive
COc1ccc(C(=O)c2c(C)n(CCN3CCOCC3)c3ccccc23)cc1,inconclusive: -19.7%,
Nc1cccc(Cl)c1,,inactive
COc1ccc(CO)cc1,inconclusive: -10.6%,
CCCCOCCOC(C)=O,inconclusive: 2.68%,
O=C1OC(CCN2CCCCC2)OC1(c1ccccc1)c1ccccc1 (stereo not given),inactive: -7.61%,
CCCCSP(=O)(SCCCC)SCCCC,,inactive
CC(C)(C)NC[C@H](O)c1ccc(O)cc1Cl,inactive: -2.84%,
CCN(CC)c1ccccc1,,inactive
O=C1NC(=O)C(=O)C(=O)N1,inactive: 0.84% [at 81.1 µM],
C=CCN1CC[C@]23CCCC[C@H]2[C@H]1Cc1ccc(O)cc13,inactive: -1.33%,
[N-]=[N+]=CC(=O)OC[C@H](N)C(=O)O,inconclusive: -1.81%,
C(CCOCC1CO1)COCC1CO1 (stereo not given),inactive: 5.35%,
NNCc1ccccc1,inactive: 1.07% [at 81.1 µM],
NC(=S)C(N)=S,inactive: -9.81%,
C=C(C)CCl,inconclusive: 10.7% [at 5.95 µM],
CC(C=O)Cc1ccc2c(c1)OCO2 (stereo not given),inactive: 0.0016%,

SMILES,"activity change, negative = inhibition",Potency
NNCCO,inactive: -2.95%,
O=C(O)C(O)C(O)C(=O)O (stereo not given),inactive: -3.92%,
O=C(Nc1ccc(F)cc1F)c1cccnc1Oc1cccc(C(F)(F)F)c1,inconclusive: -0.281% [at 81.1 µM],
CC(Oc1cccc(Cl)c1)C(=O)O (stereo not given),inactive: 0.983%,
C=CC(=O)OCCCCCC(C)C,,inactive
CON(C)C(=O)Nc1ccc(Br)cc1,,"inconclusive: 0.49 µM [fluorescent, single point]"
Cc1cccc([N+](=O)[O-])c1,,inactive
CC1N=C(N)OC1c1ccccc1 (stereo not given),inconclusive: -11.1% [at 81.1 µM],
Cc1ccn2nc(S(=O)(=O)Nc3c(F)cccc3F)nc2n1,inactive: 2.81%,
CC(C)CCCCCCCOC(=O)c1ccccc1C(=O)OCCCCCCCC(C)C,inactive: 0.758%,
CNC(=O)O/N=C/C(C)(C)S(C)=O (stereo not given),,inactive
COCc1cnc(C2=NC(C)(C(C)C)C(=O)N2)c(C(=O)O)c1 (stereo not given),inactive: 5.65%,
ClC1(Cl)C2(Cl)C3(Cl)C4(Cl)C(Cl)(Cl)C5(Cl)C3(Cl)C1(Cl)C5(Cl)C24Cl (stereo not given),inconclusive: -28.7%,
O=P(O)(Oc1ccccc1)Oc1ccccc1,inactive: 3.62%,
O=S(=O)(c1ccc(O)cc1)c1ccc(O)cc1,,inactive
CC1(C(=O)Nc2ccc(O)c(Cl)c2Cl)CCCCC1,,"inconclusive: 54.9 µM [inhibitor, single point]"
CC(C)(N)Cc1ccccc1Cl,inactive: -3.67%,
Cc1cc(Cl)ccc1O,inconclusive: -8.98%,
CC(C)(C)NCC(O)c1ccccc1Cl (stereo not given),inconclusive: -5.4%,

# Same assay, conditions: HEK293T FXR-UAS-bla, beta-lactamase ratio, CDCA-stimulated, 16 h; at 62.6 µM (top of the series)
row,SMILES,"activity change, negative = inhibition"
1,CCCCOCCOC(C)=O,inactive: -5.33%
2,C=C(C)CCl,inactive: -3.09%
